From PubChem BioAssay AID686971 (National Center for Advancing Translational Sciences (NCATS), 2013)
Screen size: about 360,000 compounds; about 7,500 (2.1%) were called active. Inconclusive means that the source gave no clear call. Such entries were picked first, then a sample of the others. The call rests on the fitted dose curve; in most records, active means well fitted cell-killing curve with a large enough effect; inconclusive means small, poorly fitted or top-dose-only effect, or effect the other way, or another doubt; inactive means no such curve, though single readings can be large or run the other way. Potencies of inconclusive entries are left out as doubtful fits.

assay: qHTS for induction of synthetic lethality in tumor cells producing 2HG: qHTS for the HT-1080-IDH1KD cell line; conditions: HT-1080 IDH1 knockdown viability, ATP luminescence, 48 h; activity, negative = toxicity: at 46.1 µM (top of the series) unless noted
From the text: Unbiased genomic sequencing for 22 glioma genomes found recurrent mutation of IDH1 on chromosome 2q33, a gene encoding the cytosolic isoform of IIDH1 associated with the tri-carboxylic acid cycle (TCA) that catalyzes the oxidative decarboxylation of isocitrate, yielding alpha-ketoglutarate and CO2 via NADP+ to NADPH conversion. Subsequent studies confirmed the recurrent IDH mutations in up to 70% of secondary gliomas and in 10% of AML cases. In addition, the somatic mutation of cancer-associated IDH1 is a point mutation resulting in various amino-acid substituents at Arginine132 (IDH1 R132), a key residue found in the enzyme's active site that when mutated, results in the loss-of-function in metabolizing isocitrate but confers a gain-of-function to produce the oncometabolite 2-hydroxyglutarate (2HG). This in effect defines IDH1 as an oncogene and provides an extraordinary opportunity to discover chemical probes against mutant IDH1 that may translate into much needed new therapies for glioma and AML patients.
This assay aims to perform a synthetic-lethal screen for chemical probes specific for 2HG-producing tumor cells using matched paired cell lines (1) HT-1080-NT fibrosarcoma cell line that overproduces 2HG and (2) HT-1080-IDH1KD cell line which has IDH1 expression knocked-down. Desirable compounds are toxic to the NT fibrosarcoma cell line but not to the IDH1KD cell line. The data in this AID corresponds to the results of the qHTS against the HT-1080 IDH1KD cell line.
[1] Dang L, Jin S, Su SM. IDH mutations in glioma and acute myeloid leukemia. Trends of Mol Med. 2010; 16(9): 387-97.
[2] Dang L et al. Cancer-associated IDH1 mutations produce 2-hydroxyglutarate. Nature. 2010; 465(7300):966.
Molecular Libraries Probe Production Centers Network [MLPCN]
NIH Chemical Genomics Center [NCGC]
Assay Submitter (PI): Lenny Dang Ph.D., Agios Pharmaceuticals
Suspensions of trypsinized HT-1080-IDH1KD cells were dispensed into white, tissue culture-treated, solid 1536-well plates at 5uL/well (750 cells/well final concentration) in RPMI medium supplemented with 5% FBS. Plates were incubated at 37 degrees C for 2 hours, after which 23 nL of compounds or DMSO were delivered to each well using a pin tool. Plates were then incubated at 37 degrees C for an additional 48 hours. CellTiter-Glo viability reagent (Promega) was dispensed into wells (2.5uL/well) and incubated at room temperature for 10 minutes. The plates were measured on a PerkinElmer ViewLux plate reader for luminescent signal (clear filter, 1 sec exp.). DMSO-treated control wells and media-only (no cells) control wells were used to normalize %Activity of identified toxic compounds; DMSO-treated wells corresponded to 0%Activity (100% viability), while media-only controls were used to normalize 100%Activity (0% viability). To minimize variability between cell lines, both HT-1080-NT and HT-1080-IDH1KD lines were dispensed and treated with identical compound series in single batches.
Concentration-response curves were fitted to the signals arising from the resulting luminescence. The concentration-effect curves were then classified based on curve quality (r2), response magnitude and degree of measured activity, and compounds were subsequently categorized based on their curve class.
Potency means the concentration at half of the fitted maximal effect; tags describe the fitted curve by direction and shape.

Structure (SMILES) | Potency | activity, negative = toxicity
COc1cccc(CNn2c(-c3cccc(C)c3)nc3ccccc3c2=O)c1O | inactive | 
CC1=NN(C(=O)c2ccc(Cn3nc(C)cc3C)o2)C(O)(C(F)(F)F)C1 (stereo unspecified) | active: 6.31 µM | 
COc1ccc(CCNc2nc(-c3cccnc3)nc3ccccc23)cc1OC | active: 10.3 µM | 
CC1=C(C)CC(C(=O)NCc2ccc3c(c2)OCO3)C(C(=O)O)C1 (stereo unspecified) | inactive | 
O=C1CC(C(=O)N(CC2CCCO2)C(C(=O)NC2CCCCC2)c2ccncc2)CS1 (stereo unspecified) | inactive | 
CC1=C(C(=O)N2CCCCCC2)CC(CC(=O)NC2CCCC2)C(=O)N1Cc1ccc(C(C)(C)C)cc1 (stereo unspecified) | inconclusive [cytotoxic, single point] | 
Cc1ccc2cccc(Oc3ncnc4scc(-c5ccccc5)c34)c2n1 | inconclusive [cytotoxic, single point] | 
Cc1ccsc1C(=O)Nc1nnc(-c2ccco2)o1 | inconclusive [cytotoxic, partial curve] | 
COc1cc(CNc2ncnc3c2ncn3[C@H]2CN(CCc3ccccc3)C[C@@H](CO)O2)cc(OC)c1OC | inactive | 
Cn1cc(Br)c(C(=O)N/N=C/c2cccc(OC3CSC3)c2)n1 |  | inconclusive: 31.7%
O=C(CCN1C(=O)/C(=C/C=C/c2ccccc2)SC1=S)Nc1cccnc1 | inconclusive [cytotoxic, partial curve] | 
COc1cc(/C=C(\C#N)c2nnc(N3CCOCC3)n2-c2ccccc2)ccc1O | inactive | 
C=CCn1nc(C(=O)OCC)cc1-c1sc(NC(=O)c2ccccc2)nc1C | inconclusive [cytotoxic, single point] | 
CC(C)C(Cl)=NOC(=O)Nc1ccc(F)cc1 | active: 16.4 µM | 
O=C(NCc1ccccn1)[C@@H]1CCCN1C(=O)[C@@H]1CCCN1C(=O)c1ccccc1 | inactive | 
O=C(Nc1ccc(Cl)cc1)NC1CCCC1Cc1ccco1 (stereo unspecified) | inconclusive [cytotoxic, single point] | 
COc1ccc(/C=N/NC(=O)c2cccc(Br)c2)cc1Cn1cc(Cl)cn1 | inconclusive [cytotoxic, single point] | 
COc1cc2nc(Nc3cccc(F)c3)nc(N)c2cc1OC | inconclusive [cytotoxic, single point] | 
CC[C@@H]1CC=C[C@H]2[C@H]1C(=O)N(Cc1ccccc1)[C@H]2c1ccoc1 | inconclusive [cytotoxic, single point] | 
Cc1ccc(/C=C/C(=O)NCCc2cccc(Cl)c2)o1 | inconclusive [cytotoxic, single point] | 
O=C(Nc1ccccc1NC(=O)c1c(F)c(F)c(F)c(F)c1F)c1c(F)c(F)c(F)c(F)c1F | inconclusive [cytotoxic, partial curve, poor fit] | 
CC(C)CN1C(=O)c2ccc(NC(=O)c3cccs3)cc2C1=O | inconclusive [cytotoxic, single point] | 
O=C(Cc1ccccc1F)Nc1cc(S(=O)(=O)N2CCCCC2)ccc1N1CCOCC1 | inactive | 
CCCCCCSc1ccc([C@@H]2[C@@H]3C(=O)N(C)C(=O)[C@@H]3[C@]3(C(=O)OC)CCCCN23)cc1OC | inconclusive [cytotoxic, single point] | 

Structure (SMILES) | Potency | activity, negative = toxicity
COCCNC(=S)N1CCN(c2nc3ccccc3s2)CC1 | inactive | 
COc1ccc(C(CNC(=O)c2ccc(-n3cnnn3)cc2)N2CCOCC2)cc1 (stereo unspecified) | inactive | 
COc1ccc(C(=O)NC2CCCc3ccccc32)cc1 (stereo unspecified) | inconclusive [cytotoxic, single point] | 
Cc1ccc(C)c(CS(=O)(=O)c2cn(CC(=O)N3CCCCC3)c3ccccc23)c1 | inactive | 
CCc1ccccc1N(C)S(=O)(=O)c1cc(-c2cc(C)no2)ccc1OC | inconclusive [cytotoxic, single point] | 
O=C1OC(Oc2ccc(Br)cc2)(c2ccccc2)c2ccccc21 (stereo unspecified) | inconclusive [cytotoxic, single point] | 
Cc1nn(-c2ccccc2)c(Cl)c1/C=C/C(=O)c1ccc(O)cc1 | inconclusive [cytotoxic, single point] | 
COC(=O)C1=CN(c2ccc(F)cc2)C(N)=C(C#N)C1c1ccc(-c2ccccc2)cc1 (stereo unspecified) | active: 10.3 µM | 
Cc1ccc2nc(-c3ccc(NS(C)(=O)=O)cc3)cc(-c3ccccc3)c2c1 | inconclusive [cytotoxic, single point] | 
NC(Cc1ccc(C(F)(F)F)cc1)c1csc(NC(=O)Nc2ccccc2Cc2ccccc2)n1 (stereo unspecified) | active: 23.1 µM | 
CCN(CC)C(=O)C1=C(C)Nc2nc3ccccc3n2C1c1cccc(OC)c1 (stereo unspecified) | inactive | 
Cc1cc(=O)[nH]c(N/N=C/c2ccc(-c3ccc(F)cc3)o2)n1 | active: 8.2 µM | 
Cc1ccc(C(=O)Nc2cc3[nH]c(=O)oc3cc2C)cc1 | inconclusive [cytotoxic, single point] | 
Cc1ccc2c(=O)n3c(nc2c1)C(Cc1ccccc1)NC(=O)c1cc2ccccc2cc1-3 (stereo unspecified) | active: 5.8 µM | 
COc1ccc(-c2c(C)cc3oc(=O)cc(-c4ccccc4)c3c2C)cc1 | inactive | 
O=C(Cn1cnc2sc(-c3ccccc3)cc2c1=O)NCc1ccco1 | inconclusive [cytotoxic, single point] | 
NC(=O)c1ccc(NC(=O)COC(=O)c2c[nH]c3ccccc23)cc1 |  | inconclusive: -30.9% [cytotoxic]
O=C(c1ccco1)N1CCN(c2ncnc3c2oc2ccccc23)CC1 | inactive | 
Cc1ccc(NCCN(C)C)c2c(=O)c3cc(O)ccc3sc12 | inconclusive [cytotoxic, partial curve] | 
CSc1ccccc1-n1nnnc1SCC(=O)Nc1cc(C)ccc1C | inactive | 
COc1ccc(-n2c(C)cc(C(=O)CN3C(=O)C(=O)N(Cc4ccccc4)C3=O)c2C)cc1 | inconclusive [cytotoxic, single point] | 
O=C(O)C(=Cc1ccnc2ccccc12)C(=O)O | inactive | 
COc1ccc(NC(=O)NC2CCCc3ccccc32)cc1 (stereo unspecified) | inconclusive [cytotoxic, single point] | 
Cc1c(C(=O)N/N=C/c2ccccc2)[nH]c2ccc(Cl)cc12 | active: 14.6 µM | 

Structure (SMILES) | Potency | activity, negative = toxicity
Cc1cc(C(=O)N/N=C/c2ccc3c(c2)OCO3)c(C)o1 | inconclusive [cytotoxic, partial curve] | 
COc1ccc2cc3cc(C(=O)Nc4ccc5c(c4)OCCO5)oc3nc2c1 | inconclusive [cytotoxic, single point] | 
COc1ccc(/C=C/C(=O)Nc2ccc(NC(C)=O)cc2)cc1S(=O)(=O)N1CCOCC1 | inconclusive [cytotoxic, single point] | 
COc1ccc2c(c1)c[n+](C)c1c3cc(OC)c(OC)cc3ccc21 | active: 10.3 µM | 
CC[n+]1c(/C=C/N(C)c2ccccc2)n(-c2ccccc2)c2ccc(-c3nc4ccccc4s3)cc21 | active: 5.8 µM | 
COc1ccc(NC(=O)COc2ccc(/C=N/NC(=O)c3cccnc3)cc2OC)cc1 | inactive | 
CN1C(=O)CC(N2CCN(c3ccc(Cl)c(Cl)c3)CC2)C1=O (stereo unspecified) | inactive | 
N#Cc1cc2c(=O)n3ccccc3nc2n(-c2ccccc2Cl)c1=O | inconclusive [cytotoxic, single point] | 
O=C(N/N=C/c1ccc2c(c1)OCO2)c1ccc2ccccc2n1 | inconclusive [cytotoxic, single point] | 
CN(C)c1ccc(NC(=O)Nc2ccc3c(c2)c(=O)n(C)n3Cc2ccccc2)cc1 | inconclusive [cytotoxic, partial curve] | 
CCC(C)(C)n1nnnc1C(c1cc2cc(OC)c(OC)cc2[nH]c1=O)N1CCc2ccccc21 (stereo unspecified) | inconclusive [cytotoxic, single point] | 
COC(=O)c1cccc2c1-c1ccccc1/C2=N/O | inconclusive [cytotoxic, single point] | 
CCCOc1ccc(/C=N/Nc2cc(N3CCOCC3)ncn2)c(O)c1 | active: 3.66 µM | 
CCOC(=O)N1CCN(C(=O)c2cn(CCOC)c(=O)c3c2c2ccccc2n3C)CC1 | inactive | 
CCOC(=O)Cc1ccc(Nc2nc3cc(-c4sccc4C)sc3c(=O)n2C)cc1 | active: 4.61 µM | 
COc1ccc(C(=O)c2cc(C(C)=O)c(Nc3ccccc3)s2)cc1 | inconclusive [cytotoxic, partial curve] | 
COc1cccc(C(=O)c2c(-c3ccccc3)ncc3cc(OC)c(OC)cc23)c1 | inactive | 
CC1CC(C)CN(CC(=O)N2CCCc3c2c(=O)oc2ccc(OCc4ccccc4)cc32)C1 (stereo unspecified) | inconclusive [cytotoxic, single point] | 
Cc1ccc(S(=O)(=O)ON2C(=O)c3ccccc3C2=O)c(C)c1 | inconclusive [cytotoxic, partial curve] | 
CC(C)(C)c1ccc(CN2N=Nc3ccccc3S2(=O)=O)cc1 | inconclusive [cytotoxic, single point] | 
COc1ccc(Cl)cc1C(=O)O/N=C(\N)c1ccncc1 | inconclusive [cytotoxic, single point] | 
O=[N+]([O-])c1ccc2c(c1)c1ccccc1n2CCO | inconclusive [cytotoxic, single point] | 
CCN(CC)CCCN(Cc1cc2cc(OC)ccc2[nH]c1=O)C(=O)Nc1ccccc1 | inconclusive [cytotoxic, partial curve, poor fit] | 
